Results published in PMC4336329 (PLoS ONE, 2015).
Hit rate of the full screen: of about 310,000 compounds, about 14,000 (4.5%) showed an effect of 50% or more. Effects have a minus sign here. The list shows a part of the results.

Biological target: human ether-à-go-go-related gene (hERG) potassium channel (human, UniProt Q12809)
Test: primary screen, population patch clamp on CHO cells stably expressing hERG
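Also: peak tail current of the secondary pulse compared with the same well before compound.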

human ether-à-go-go-related gene (hERG) potassium channel, sequence (Q12809 whole entry, looked up): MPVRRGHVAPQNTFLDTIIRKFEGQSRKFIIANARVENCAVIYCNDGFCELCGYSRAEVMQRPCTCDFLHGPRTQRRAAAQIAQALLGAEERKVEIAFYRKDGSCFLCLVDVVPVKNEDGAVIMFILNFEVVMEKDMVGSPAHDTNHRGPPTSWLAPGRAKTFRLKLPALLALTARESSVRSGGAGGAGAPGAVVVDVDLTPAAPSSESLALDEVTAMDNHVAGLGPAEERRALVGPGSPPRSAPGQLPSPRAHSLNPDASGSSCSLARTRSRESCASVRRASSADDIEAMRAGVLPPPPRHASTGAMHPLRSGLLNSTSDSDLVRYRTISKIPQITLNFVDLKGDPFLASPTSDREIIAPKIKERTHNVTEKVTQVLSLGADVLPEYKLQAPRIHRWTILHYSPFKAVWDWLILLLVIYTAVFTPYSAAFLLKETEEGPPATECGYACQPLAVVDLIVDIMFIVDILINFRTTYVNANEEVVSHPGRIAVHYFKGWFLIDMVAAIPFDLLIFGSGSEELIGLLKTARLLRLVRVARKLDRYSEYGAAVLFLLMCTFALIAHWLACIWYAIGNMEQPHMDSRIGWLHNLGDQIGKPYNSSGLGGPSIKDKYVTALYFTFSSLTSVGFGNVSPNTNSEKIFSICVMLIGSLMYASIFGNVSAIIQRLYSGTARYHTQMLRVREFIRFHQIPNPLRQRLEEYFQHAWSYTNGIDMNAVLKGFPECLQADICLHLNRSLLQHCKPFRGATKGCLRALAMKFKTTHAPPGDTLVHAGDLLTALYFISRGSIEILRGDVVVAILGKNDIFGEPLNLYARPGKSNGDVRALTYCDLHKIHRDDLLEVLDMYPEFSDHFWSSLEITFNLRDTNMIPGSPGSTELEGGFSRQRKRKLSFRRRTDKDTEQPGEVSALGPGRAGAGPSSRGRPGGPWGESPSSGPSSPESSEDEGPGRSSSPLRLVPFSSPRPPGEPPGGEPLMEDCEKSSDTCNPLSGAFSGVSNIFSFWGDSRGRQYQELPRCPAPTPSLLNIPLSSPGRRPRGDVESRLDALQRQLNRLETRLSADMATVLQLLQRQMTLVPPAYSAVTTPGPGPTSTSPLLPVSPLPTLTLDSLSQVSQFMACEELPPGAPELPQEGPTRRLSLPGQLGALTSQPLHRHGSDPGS

Row | SMILES | hERG current change (%, negative = inhibition) at 10uM
1 | Cc1ccsc1/C=c1\sc2ncnn2c1=O | 16.9%
2 | CCOc1ccc(C(=O)COC(=O)c2cc(=O)[nH]c3ccccc23)cc1 | 5.75%
3 | CN(C)CC/C=C1/c2ccccc2Sc2ccc(Cl)cc21 | -8.11%
4 | CCc1ccc2c(c1)C1(NN=C(c3cccc4ccccc34)S1)C(=O)N2 (stereo not drawn) | 19.2%
5 | O=C(O)c1ccccc1NC(c1ccccc1)c1ccc(Cl)cc1 (stereo not drawn) | 19.8%
6 | COc1ccc(C2CC(c3cccs3)=NN2C(=O)CSc2nc3c(cnn3-c3ccccc3)c(=O)[nH]2)cc1 (stereo not drawn) | 7.62%
7 | COCCNS(=O)(=O)c1cccc2cccnc12 | 11.6%
8 | Cc1ccc(NC(=O)CSc2nnc(-c3cccs3)n2Cc2ccco2)cc1 | -61.6%
9 | CSCCC(NS(=O)(=O)c1ccc2c(c1)oc(=O)n2C)C(=O)NCc1ccccc1 (stereo not drawn) | 4.1%
10 | N#Cc1ccc(CSc2nnc3ccccn23)cc1 | -0.562%
11 | O=C1NC(=S)N(c2ccc(F)cc2)C(=O)/C1=C/c1ccco1 | 18.4%
12 | COCCNc1c(-c2cc3ccc(C)c(C)c3[nH]c2=O)nc2ccccn12 | -74.9%
13 | COc1ccc(S(=O)(=O)N(C)c2ccc(C(=O)NCC3CCCO3)cc2)cc1OC (stereo not drawn) | 2.15%
14 | O=C(Cn1cnc2c(nnn2Cc2ccc(F)cc2)c1=O)NCc1ccccc1 | -11.1%
15 | CC(C)(C)OC(=O)N[C@@H](C(=O)OC(C)(C)C)c1ccc(Br)cc1 | 1.17%
16 | COc1ccc2c(CC(=O)NC(Cc3ccc(Cl)cc3)C(=O)O)cc(=O)oc2c1C (stereo not drawn) | 3.13%
17 | Cc1csc2nc(O)c(C(=O)NCCCc3ccccc3)c(=O)n12 | -20%
18 | Cc1cc(C)c(S(=O)(=O)Nc2ccccc2C(=O)OCC(=O)NCc2ccccc2)c(C)c1 | -0.075%
19 | CCOC(=O)C1(CCCc2ccccc2)CCN(C(=O)c2cnn(CC)c2)CC1 | -64.2%

Row | SMILES | hERG current change (%, negative = inhibition) at 10uM
20 | CCC(Sc1nc2cc(OC)c(OC)cc2c(=O)n1CCc1ccc(S(N)(=O)=O)cc1)C(=O)NCCOC (stereo not drawn) | -34.8%
21 | COc1ccc(/C=N\NC(=O)c2ccc(-c3ccccc3)cc2)c(OC)c1OC | 11.5%
22 | CC(C)CC1NC(=O)N(CC(=O)N2CCCc3ccccc32)C1=O (stereo not drawn) | -1.52%
23 | CC(Oc1ccc(Br)cc1)C(=O)NCC(c1cccs1)N1CCOCC1 (stereo not drawn) | -24.9%
24 | COC(=O)CC(CP(=O)([O-])CN(C)C=O)C(=O)OC (stereo not drawn) | 11%
25 | COc1cccc(OCCSc2nnc3sc4ccccc4n23)c1 | -21.1%
26 | O=C(NC(=S)N(CCO)Cc1ccccc1)c1ccc(F)cc1Cl | 4.31%
27 | O=C1/C(=C/c2ccccn2)SC(=S)N1c1cccc(O)c1 | 3.17%
28 | CCOc1ccc(CSC(CC(=O)O)C(=O)O)cc1 (stereo not drawn) | 9.05%
29 | Cc1noc(C)c1C(=O)N1CC(C)OC(C)C1 (stereo not drawn) | -0.435%
30 | Cc1ccccc1/C=C/C1=NCCN1.O=C(O)C(=O)O | -2.49%
31 | CCNC(=S)Nc1cc(-c2ccc(Cl)cc2)[nH]n1 | 23.2%
32 | CCOC(=O)c1cccc(S(=O)(=O)N(CCO)Cc2cc3cc(OC)c(OC)cc3[nH]c2=O)c1 | -9.89%
33 | COC(=O)c1ccc(-c2ccc(Cl)cc2)nc1C | 16.4%
34 | COc1cc(NC(=O)NCc2ccncc2)cc(OC)c1OC | -0.152%
35 | C/C(=N/NC(=O)c1cc(-c2cccc([N+](=O)[O-])c2)n[nH]1)c1ccc(Cl)cc1 | 6.73%
36 | COc1ccc(CC(C)NCCc2ccc(OC)c(OC)c2)cc1 (stereo not drawn) | -60.3%
37 | O=c1c2ccccc2nc2n1CCCN2 | 10.9%
38 | O=C(CSC(=S)N1CCSCC1)c1ccc(Cl)cc1 | 13.9%

Row | SMILES | hERG current change (%, negative = inhibition) at 10uM
39 | Nc1nnc(C(=O)c2ccccc2N)s1 | 6.24%
40 | CC(=O)Nc1ccc(NC(=O)C(C)OC(=O)C2(c3ccc(Cl)cc3)CCCC2)cc1 (stereo not drawn) | 7.38%
41 | CCC(C)c1ccc(OCC(=O)O)cc1 (stereo not drawn) | 11.5%
42 | O=C1CC(C(=O)Nc2ncccn2)C(c2ccccc2)O1 (stereo not drawn) | 5.09%
43 | Cc1ccc2c(c1)N(CCC(=O)NC1CCCCC1C)C(=O)CO2 (stereo not drawn) | 25.9%
44 | CCC(=O)c1ccc(OCC(O)CN2CCCCC2)cc1.Cl (stereo not drawn) | -21.8%
45 | CCOC(=O)N1CCC(NS(=O)(=O)c2cc(Br)cc3c2N(C(=O)CC)CC3)CC1 | 3.15%
46 | CCOC(=O)CSC1=C(C#N)C(C)C2=C(CCCC2=O)N1 (stereo not drawn) | -7.84%
47 | COc1ccc(S(=O)(=O)N2CCC(=O)N2)cc1 | 3.18%
48 | CC(C)(C)NC[C@H](O)COc1nsnc1N1CCOCC1.O=C(O)/C=C\C(=O)O | 7.2%
49 | Cc1c(C(=O)N2CCOCC2)[nH]c2c1C(=O)CC(c1ccc(Cl)cc1)C2 (stereo not drawn) | -45.5%
50 | COc1cc2c(cc1OC)C(c1ccccc1)N(C(=O)CSCC(=O)O)CC2 (stereo not drawn) | 28.5%
51 | CC(C)N(Cc1nccn1C)C(=O)c1cc(COc2ccc3ncccc3c2)on1 | 9.33%
52 | COc1ccc(C2C(C#N)=C(SCC(=O)Nc3ccc(C)cc3)NC3=C2C(=O)CC(C)(C)C3)cc1 (stereo not drawn) | -2.49%
53 | Cc1occc1-c1nnc(SCC(=O)Nc2c(F)cccc2F)n1C | -7.23%
54 | COc1ccc(CN(C)CC(=O)Nc2ccc(Cl)cc2F)c(OC)c1.O=C(O)C(=O)O | -16.1%
55 | COC(=O)c1ccc(CSc2nnc(NC(C)C)s2)cc1 | -13.9%
56 | COc1ccc(Br)cc1CN(C)CC(=O)Nc1ccccc1Cl | -11.7%
57 | CCC(C(=O)OCC(=O)Nc1ccc(C(N)=O)cc1)c1ccccc1 (stereo not drawn) | -40.9%
